Converted amounts (≈) assume the structure as drawn.
System: Escherichia coli DH5α
Settings: 48 h
Method: The antimicrobial assay was carried out as described in Bassarello et al. (2004)[20] with some modifications. Bacteria were grown in LB broth at 25 or 37 °C overnight at 150 rpm. A total of 500 μL of a suspension containing about 10^8 cfu mL^–1 were added to 3 mL of LB soft agar (0.7%) and poured onto plates containing 7 mL of LB broth with agar 1.8%. […] After 24 ± 48 h of incubation at 25 or 37 °C, the end serial dilution inhibiting the growth of the bacteria in the area of application of 10 μL solutions was recorded. The plates containing the bacteria alone were used as a control. The experiment was performed in triplicate.

**Q.** Which MIC does the source give for `CC(C)C[C@@H]1NC(=O)[C@@H]2CCCN2C1=O` [compound 13, cyclo(L-Pro-L-Leu)] here?
**A.** 300 µg/mL (≈ 1430 µM)

— publication PMC9026286, “Bacterial Lipodepsipeptides and Some of Their Derivatives and Cyclic Dipeptides as Potential Agents for Biocontrol of Pathogenic Bacteria and Fungi of Agrarian Plants” (Journal of Agricultural and Food Chemistry, 2022)
